{"source": "patent US20220340678A1", "about": "(MURAL ONCOLOGY, published 2022)", "binders": {"B1": {"name": "Human uPA-ATF:Fc:hIL-15Ra:cpIL-15 (Fc fusion)", "chain": "SNELHQVPSNCDCLNGGTCVSNKYFSNIHWCNCPKKFGGQHCEIDKSKTCYEGNGHFYRGKASTDTMGRPCLPWNSATVLQQTYHAHRSDALQLGLGKHNYCRNPDNRRRPWCYVQVGLKPLVQECMVHDCAGGSGG[omitted - human IgG1 Fc with C220S (EU numbers)]GSITCPPPMSVEHADIWVKSYSLYSRERYICNSGFKRKAGTSSLTECVLNKATNVAHWTTPSLKCIRDGGSELEEKNIKEFLQSFVHIVQMFINGGGSNWVNVISDLKKIEDLIQSMHIDATLYTESDVHPSCKVTAMKCFLLELQVISLESGDASIHDTVENLIILANNSLSSNGNVTESGCKEC"}}, "target": "T1, IL-2/IL-15 receptor on HH cells (human)", "T1 chain 1": "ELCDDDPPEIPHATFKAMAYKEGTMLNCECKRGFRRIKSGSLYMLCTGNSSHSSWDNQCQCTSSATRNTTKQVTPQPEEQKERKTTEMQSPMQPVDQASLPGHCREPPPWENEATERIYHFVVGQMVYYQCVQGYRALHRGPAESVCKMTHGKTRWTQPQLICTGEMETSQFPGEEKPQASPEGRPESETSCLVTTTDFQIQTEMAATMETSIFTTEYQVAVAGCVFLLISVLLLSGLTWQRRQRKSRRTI", "T1 chain 2": "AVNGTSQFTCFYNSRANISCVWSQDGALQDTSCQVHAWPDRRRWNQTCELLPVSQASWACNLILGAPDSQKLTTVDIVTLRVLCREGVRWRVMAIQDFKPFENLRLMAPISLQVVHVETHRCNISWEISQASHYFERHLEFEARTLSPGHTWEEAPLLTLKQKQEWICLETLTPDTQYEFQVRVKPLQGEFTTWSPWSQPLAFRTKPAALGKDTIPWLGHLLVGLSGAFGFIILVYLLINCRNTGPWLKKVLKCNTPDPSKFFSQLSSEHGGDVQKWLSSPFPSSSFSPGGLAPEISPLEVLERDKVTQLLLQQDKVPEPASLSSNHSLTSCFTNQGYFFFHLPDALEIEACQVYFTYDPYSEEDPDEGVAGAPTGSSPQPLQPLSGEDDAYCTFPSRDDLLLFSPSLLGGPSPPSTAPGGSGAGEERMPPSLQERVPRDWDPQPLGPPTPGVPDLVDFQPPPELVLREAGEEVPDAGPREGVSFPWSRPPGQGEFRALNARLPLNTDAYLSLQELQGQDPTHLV", "T1 chain 3": "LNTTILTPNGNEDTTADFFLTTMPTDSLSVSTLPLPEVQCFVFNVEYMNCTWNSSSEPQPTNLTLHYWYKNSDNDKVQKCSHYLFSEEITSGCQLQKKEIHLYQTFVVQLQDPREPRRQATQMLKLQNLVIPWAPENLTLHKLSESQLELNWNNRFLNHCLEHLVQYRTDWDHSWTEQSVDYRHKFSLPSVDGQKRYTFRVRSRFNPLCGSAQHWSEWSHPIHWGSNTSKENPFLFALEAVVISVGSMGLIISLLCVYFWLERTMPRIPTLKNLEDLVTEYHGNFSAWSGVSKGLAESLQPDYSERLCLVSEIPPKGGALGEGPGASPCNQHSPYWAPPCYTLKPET", "experiment": "cell-based or functional assay", "data": [{"binder": "B1", "values": [{"measurement": "pSTAT5 EC50, HH cells", "result": 99, "unit": "pM"}]}]}
